According to the supplement of paper PMC4967469:
IC50 is the fitted dose that halves viability relative to control wells, and lower means more sensitive; fits outside the tested doses are given as limits. For AUC the same curve is integrated over the 256-fold range of doses and scaled to a fraction; values near 1 show little effect. For some of these results: Any top dose called inferred was calculated from the reported fits.

Key:
Assay in all cases: Viability of human cancer cell lines after 72 h of drug (GDSC screen)
AV-951 = compound: COc1cc2nccc(Oc3ccc(NC(=O)Nc4cc(C)on4)c(Cl)c3)c2cc1OC [AV-951]; conditions: top dose 0.128 µM; top dose inferred
Description: (§1)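 Human cancer cell lines in 384-well plates, medium with 10% serum, drug for 72 h over a 256-fold dose range (nine 2-fold or five 4-fold steps up to the top dose). Adherent lines were fixed and stained with the nucleic acid dye Syto60, suspension lines read with resazurin; signal relative to control wells, capped at 0 and 100%. One two-parameter sigmoid per drug and line, fitted in a mixed model over all curves with the slope shared within a line.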

Trametinib = compound: CC(=O)Nc1cccc(-n2c(=O)n(C3CC3)c(=O)c3c(Nc4ccc(I)cc4F)n(C)c(=O)c(C)c32)c1 [Trametinib]; conditions: top dose 1 µM
Description: as §1

HG-6-64-1 = compound: CCN1CCN(Cc2ccc(NC(=O)c3ccc(C)c(/C=C/c4cnc5[nH]ccc5c4OC)c3)cc2C(F)(F)F)CC1 [HG-6-64-1]; conditions: top dose 5.12 µM; top dose inferred
Description: as §1

MS-275 = compound: Nc1ccccc1NC(=O)c1ccc(CNC(=O)OCc2cccnc2)cc1 [MS-275]; conditions: top dose 5 µM; top dose inferred
Description: as §1

PF-4708671 = compound: CCc1cncnc1N1CCN(Cc2nc3ccc(C(F)(F)F)cc3[nH]2)CC1 [PF-4708671]; conditions: top dose 10 µM; top dose inferred
Description: as §1

I-BET-762 = compound: CCNC(=O)C[C@@H]1N=C(c2ccc(Cl)cc2)c2cc(OC)ccc2-n2c(C)nnc21 [I-BET-762]; conditions: top dose 20 µM; top dose inferred
Description: as §1

KIN001-244 = compound: O=C(NC(COc1ccc2[nH]c(=O)[nH]c2c1)c1ccccc1)c1cccn(Cc2ccc(F)c(F)c2)c1=O [KIN001-244]; conditions: top dose 20 µM; top dose inferred
Description: as §1

| Cell Line | AUC (AV-951) | IC50 (AV-951) | AUC (Trametinib) | IC50 (Trametinib) | AUC (HG-6-64-1) | IC50 (HG-6-64-1) | AUC (MS-275) | IC50 (MS-275) | AUC (PF-4708671) | IC50 (PF-4708671) | AUC (I-BET-762) | IC50 (I-BET-762) | AUC (KIN001-244) | IC50 (KIN001-244) |
| --- | --- | --- | --- | --- | --- | --- | --- | --- | --- | --- | --- | --- | --- | --- |
| KASUMI-1 (acute myeloid leukaemia, suspension) | 0.347 | 0.00301 µM | 0.315 | 0.019 µM | 0.306 | 0.0913 µM | 0.985 | > 5 µM | 0.95 | > 10 µM |  |  |  |  |
| KCL-22 (chronic myeloid leukaemia, suspension) | 0.883 | 0.0991 µM | 0.704 | 0.209 µM | 0.175 | 0.042 µM | 0.635 | 0.688 µM |  |  | 0.723 | 4.74 µM | 0.806 | 8.24 µM |
| KOPN-8 (B-cell leukaemia, suspension) | 0.981 | > 0.128 µM | 0.955 | > 1 µM | 0.763 | 1.6 µM | 0.554 | 0.429 µM |  |  | 0.478 | 1.1 µM | 0.747 | 5.6 µM |
| KP-N-YN (neuroblastoma, adherent) | 0.986 | > 0.128 µM | 0.895 | > 1 µM | 0.93 | > 5.12 µM | 0.727 | 1.49 µM |  |  | 0.912 | > 20 µM | 0.968 | > 20 µM |
| L-363 (myeloma, suspension) | 0.99 | > 0.128 µM | 0.962 | > 1 µM | 0.951 | > 5.12 µM | 0.608 | 0.591 µM | 0.926 | > 10 µM |  |  | 0.9 | 19.6 µM |
| LB647-SCLC (small cell lung carcinoma, semi-adherent) |  |  | 0.981 | > 1 µM | 0.948 | > 5.12 µM | 0.545 | 0.42 µM | 0.984 | > 10 µM | 0.941 | > 20 µM |  |  |
| LOUCY (T-cell lymphoblastic leukaemia, suspension) | 0.986 | > 0.128 µM | 0.944 | > 1 µM | 0.956 | > 5.12 µM | 0.624 | 0.639 µM | 0.962 | > 10 µM |  |  | 0.809 | 8.17 µM |
| MFH-ino (soft tissue, adherent) | 0.983 | > 0.128 µM | 0.461 | 0.0482 µM | 0.626 | 0.758 µM | 0.802 | 2.97 µM |  |  | 0.959 | > 20 µM | 0.824 | 14.8 µM |
| MMAC-SF (melanoma, adherent) | 0.986 | > 0.128 µM | 0.067 | < 0.00391 µM | 0.72 | 1.39 µM | 0.825 | 3.16 µM |  |  | 0.935 | > 20 µM | 0.986 | > 20 µM |
| MOLM-13 (acute myeloid leukaemia, suspension) | 0.838 | 0.0788 µM | 0.465 | 0.0506 µM | 0.338 | 0.117 µM | 0.501 | 0.315 µM | 0.902 | > 10 µM |  |  | 0.479 | 1.1 µM |
| NALM-6 (B-cell leukaemia, suspension) | 0.99 | > 0.128 µM | 0.988 | > 1 µM | 0.629 | 0.68 µM | 0.608 | 0.586 µM | 0.904 | 9.57 µM |  |  | 0.432 | 0.841 µM |
| NB17 (neuroblastoma, adherent) | 0.964 | > 0.128 µM | 0.98 | > 1 µM | 0.785 | 2.55 µM | 0.583 |  |  |  | 0.945 | > 20 µM | 0.809 | 12.4 µM |
| NCI-H526 (small cell lung carcinoma, suspension) | 0.989 | > 0.128 µM | 0.985 | > 1 µM | 0.883 | 5.06 µM | 0.617 | 0.645 µM | 0.965 | > 10 µM |  |  | 0.895 | > 20 µM |
| RL95-2 (endometrium, adherent) | 0.987 | > 0.128 µM | 0.189 | 0.00749 µM | 0.789 | 2.23 µM | 0.721 | 1.31 µM |  |  | 0.94 | > 20 µM | 0.857 | 16 µM |
| RPMI-8402 (T-cell lymphoblastic leukaemia, suspension) | 0.982 | > 0.128 µM | 0.966 | > 1 µM | 0.708 | 1.1 µM | 0.56 | 0.443 µM |  |  | 0.562 | 1.79 µM | 0.642 | 2.88 µM |
| Raji (Burkitt lymphoma, suspension) | 0.989 | > 0.128 µM | 0.988 | > 1 µM | 0.923 | > 5.12 µM | 0.91 | > 5 µM | 0.971 | > 10 µM |  |  | 0.854 | 14.2 µM |
| SK-N-FI (neuroblastoma, adherent) | 0.981 | > 0.128 µM | 0.601 | 0.118 µM | 0.989 | > 5.12 µM | 0.853 | 3.88 µM |  |  | 0.967 | > 20 µM | 0.895 | > 20 µM |
| SK-PN-DW (Ewing sarcoma, adherent) | 0.982 | > 0.128 µM | 0.973 | > 1 µM | 0.724 | 1.42 µM | 0.689 | 1.08 µM |  |  | 0.881 | > 20 µM | 0.793 | 9.49 µM |
| TC-71 (Ewing sarcoma, adherent) | 0.992 | > 0.128 µM | 0.982 | > 1 µM | 0.992 | > 5.12 µM | 0.91 | > 5 µM |  |  | 0.789 | 7.28 µM | 0.735 | 5.07 µM |
| TGBC1TKB (biliary tract, adherent) | 0.989 | > 0.128 µM | 0.886 | > 1 µM | 0.907 | > 5.12 µM | 0.959 | > 5 µM |  |  | 0.983 | > 20 µM | 0.911 | > 20 µM |
| WSU-NHL (lymphoid neoplasm, suspension) | 0.988 | > 0.128 µM | 0.99 | > 1 µM | 0.823 | 2.55 µM | 0.854 | 3.23 µM |  |  | 0.963 | > 20 µM | 0.89 | 18.2 µM |
